The values that follow come from a collection of fitness landscapes (doi:10.1126/science.1257360).

First the molecules themselves.
B1: PhoQ; a variant is named by its letters at X, in order, P23837 (parent)
chain: MKKLLRLFFPLSLRVRFLLATAAVVLVLSLAYGMVALIGYSVSFDKTTFRLLRGESNLFYTLAKWENNKLHVELPENIDKQSPTMTLIYDENGQLLWAQRDVPWLMKMIQPDWLKSNGFHEIEADVNDTSLLLSGDHSIQQQLQEVREDDDDAEMTHSVAVNVYPATSRMPKLTIVVVDTIPVELKSSYMVWSWFIYVLSANLLLVIPLLWVAAWWSLRPIEALAKEVRELEEHNRELLNPATTRELTSLVRNLNRLLKSERERYDKYRTTLTDLTHSLKTPLXXLQXXLRSLRSEKMSVSDAEPVMLEQISRISQQIGYYLHRASMRGGTLLSRELHPVAPLLDNLTSALNKVYQRKGVNISLDISPEISFVGEQNDFVEVMGNVLDNACKYCLEFVEISARQTDEHLYIVVEDDGPGIPLSKREVIFDRGQRVDTLRPGQGVGLAVAREITEQYEGKIVAGESMLGGARMEVIFGRQHSAPKDE

The other results are listed elsewhere or left out.

The assay covers variants of B1. Put plainly: enrichment ratio after two sorts for PhoP signalling (ratio (wild type AVST 3.29)); higher = more functional. The settings on record: with PhoP (E. coli).
As to AKMP, the enrichment ratio was not above 0.25.

Regarding VALV, the enrichment ratio was 7.72. Regarding ETEV, the enrichment ratio was not above 0.25. To SNEV belongs not above 0.25; to VVYF, not above 0.25. With PERC, the enrichment ratio was not above 0.25. The value for DQQF was not above 0.25; that for HEFS was not above 0.25; that for GKGL was not above 0.25. The value for HASV was not above 0.25; that for DVVH was not above 0.25. The value for QNLE was not above 0.25; that for KSFM was not above 0.25. As for ERVI, the enrichment ratio is not above 0.25. To MRTY belongs not above 0.25.

With RDET, the enrichment ratio was not above 0.25. Consider QTLM, for which the enrichment ratio is not above 0.25. In the case of VYFT, the enrichment ratio is not above 0.25. Turning to NMWF, the enrichment ratio was not above 0.25. Take NIRF: the enrichment ratio was not above 0.25.

With QYWN, the enrichment ratio came to 0.285. Consider VNFH, for which the enrichment ratio is not above 0.25. The value for ENHY was not above 0.25; that for IHSQ was not above 0.25. Take FEGC: the enrichment ratio was not above 0.25.

With MMKR, the enrichment ratio was not above 0.25. To YLVN belongs not above 0.25; to PMHK, not above 0.25; to HSTG, not above 0.25.

For the variant LWLT, the enrichment ratio was not above 0.25. To HFDC belongs not above 0.25; to VRRL, not above 0.25. With QFGD, the enrichment ratio was not above 0.25. Consider HDWV, for which the enrichment ratio was not above 0.25. As to ANGI, the enrichment ratio is 22.1.

With ENLY, the enrichment ratio was not above 0.25.

Consider KDLN, for which the enrichment ratio is not above 0.25. The value for PIRR was not above 0.25; that for DELW was not above 0.25; that for SSVL was 13.8. As to PHMG, the enrichment ratio was not above 0.25. To FFKF belongs not above 0.25. Take AEQN: the enrichment ratio was 21.7.

For the variant LTYF, the enrichment ratio is not above 0.25.

For the variant YKFG, the enrichment ratio was not above 0.25. Take FQLC: the enrichment ratio amounted to 2.14. Turning to GPGG, the enrichment ratio is not above 0.25. With FRYN, the enrichment ratio is not above 0.25. On to RQWN, for which the enrichment ratio is not above 0.25. For RGVY, the enrichment ratio is not above 0.25. Consider HKWA, for which the enrichment ratio was not above 0.25. The value for QEVP was not above 0.25; that for PVLQ was not above 0.25; that for PPYH was not above 0.25. To AFLH belongs not above 0.25; to IYMD, not above 0.25; to NRKS, not above 0.25. To WEML belongs not above 0.25.

As for GQNA, the enrichment ratio is not above 0.25.

For the variant PHYM, the enrichment ratio is not above 0.25. To RLGN belongs not above 0.25; to QERT, not above 0.25; to MKSS, not above 0.25. To DSLA belongs not above 0.25. Regarding GVLG, the enrichment ratio was 8.66.

In the case of GYKS, the enrichment ratio is not above 0.25. The value for YKQG was not above 0.25; that for HNVV was not above 0.25; that for GTTY was 0.902. To WFTF belongs not above 0.25; to LFEK, not above 0.25. The value for NVLP was not above 0.25; that for WDQN was not above 0.25.

On to QDYH, for which the enrichment ratio was not above 0.25. The value for VSSK was not above 0.25; that for DNFY was not above 0.25; that for RMIC was not above 0.25. Turning to MDAL, the enrichment ratio is not above 0.25. To KEIY belongs not above 0.25; to YYYN, not above 0.25; to VCRD, not above 0.25.

Consider TKVG, for which the enrichment ratio came out at 1.43. On to VYDA, for which the enrichment ratio was not above 0.25. The value for KMHC was not above 0.25; that for RHAM was not above 0.25; that for FVRK was not above 0.25. The value for MGHR was not above 0.25; that for RDFH was not above 0.25. Regarding RASV, the enrichment ratio was not above 0.25. To YLYS belongs not above 0.25.

In the case of YAQN, the enrichment ratio is not above 0.25. The value for DECR was not above 0.25; that for ATRC was not above 0.25. With GRPW, the enrichment ratio was not above 0.25. Take YYIL: the enrichment ratio was not above 0.25. On to WPKI, for which the enrichment ratio is not above 0.25. The value for DVEQ was not above 0.25.

As to KYHH, the enrichment ratio is not above 0.25. As for DDQP, the enrichment ratio was not above 0.25.

For the variant FDDQ, the enrichment ratio was not above 0.25. To GTLM belongs 14.5; to QIIR, not above 0.25; to MFPH, 0.547.

With LCCK, the enrichment ratio was not above 0.25. As for NIVQ, the enrichment ratio is not above 0.25. HRGW: the enrichment ratio was not above 0.25. MDDP: the enrichment ratio was not above 0.25. For the variant WQLR, the enrichment ratio was not above 0.25. Turning to SCGQ, the enrichment ratio was 3.23. As to AVSF, the enrichment ratio was 9.87. The value for HIQN was not above 0.25. Consider YITS, for which the enrichment ratio came out at 0.602. To THRG belongs not above 0.25; to RMKG, not above 0.25. For WACR, the enrichment ratio is not above 0.25.

With LDQL, the enrichment ratio was not above 0.25. To GKID belongs not above 0.25. For NFML, the enrichment ratio is not above 0.25. To YRCA belongs not above 0.25; to GMPQ, not above 0.25; to DGYL, not above 0.25.

Regarding NMTC, the enrichment ratio was not above 0.25.

Consider SMNQ, for which the enrichment ratio was not above 0.25. The value for VDKV was not above 0.25; that for WCWL was not above 0.25. Take QIHY: the enrichment ratio is not above 0.25. The value for HVYW was not above 0.25; that for LDPI was not above 0.25.

Regarding ICLI, the enrichment ratio turned out to be 5.89. ECNT: the enrichment ratio was not above 0.25. The value for PRKG was not above 0.25; that for VTMN was not above 0.25.

Turning to GVIQ, the enrichment ratio was not above 0.25. On to RANY, for which the enrichment ratio is not above 0.25. For FEVP, the enrichment ratio was not above 0.25. The value for PLDG was not above 0.25; that for IHWM was not above 0.25.

For EMVH, the enrichment ratio is not above 0.25. The value for YDFP was not above 0.25; that for TTAF was 14; that for NWWA was not above 0.25.

For the variant PSGC, the enrichment ratio was not above 0.25. To VFVH belongs not above 0.25. Take KFLI: the enrichment ratio is not above 0.25. In the case of ELQR, the enrichment ratio is not above 0.25.

Consider DFWI, for which the enrichment ratio was not above 0.25. The value for MYSG was not above 0.25; that for NSHA was not above 0.25; that for TARE was not above 0.25. Take MGPG: the enrichment ratio is not above 0.25. As for IMLW, the enrichment ratio was not above 0.25. To NNRS belongs not above 0.25; to TKHY, not above 0.25.

Take FSWR: the enrichment ratio was not above 0.25. As for VEND, the enrichment ratio was not above 0.25.

For the variant VWCP, the enrichment ratio was not above 0.25. The value for FYKS was not above 0.25; that for YICK was not above 0.25; that for MHAS was not above 0.25. With HARY, the enrichment ratio is not above 0.25. As to FDQC, the enrichment ratio is not above 0.25. The value for GVGN was not above 0.25; that for RKLI was not above 0.25.

For ADGK, the enrichment ratio was not above 0.25. As to SMTA, the enrichment ratio was determined as 11.8.

Consider PMRP, for which the enrichment ratio is not above 0.25. On to VEHD, for which the enrichment ratio was not above 0.25. The value for QRAG was not above 0.25; that for EKAS was not above 0.25; that for DVIF was not above 0.25.

Consider DFWD, for which the enrichment ratio is not above 0.25. The value for ERHS was not above 0.25. To WIPP belongs not above 0.25; to FMDV, not above 0.25. EHWH: the enrichment ratio is not above 0.25. Consider FYRW, for which the enrichment ratio is not above 0.25. To SKSF belongs not above 0.25; to SVGA, 0.974; to DSRY, not above 0.25. To KTLM belongs 2.5; to RFES, not above 0.25; to SNKW, not above 0.25. The value for GLLT was 0.268. Consider SQME, for which the enrichment ratio was determined as 2.06. The value for HMHD was not above 0.25; that for TENF was not above 0.25.

For WNHF, the enrichment ratio was not above 0.25.

Regarding TKHN, the enrichment ratio is not above 0.25. To LADF belongs not above 0.25; to FFIK, not above 0.25; to HFCR, not above 0.25. The value for DCNC was not above 0.25. Take RISA: the enrichment ratio is not above 0.25. To FLHF belongs not above 0.25; to LKCD, not above 0.25.
